We go through 56 variants from the RNAGym collection of RNA variant scans (doi:10.7554/elife.90254).

B1: LINE1-mini (parent)
chain: GGCAGAGCUCAACACAGCGUGGCAAAGUGGCUGUGGCUAGACUGCC

Read counts are not given, so values of variants with three or more changes are uncertain.

Variants of B1 are the subject of this data set. The data set is described as follows: self-cleavage, relative activity (ratio to wild type); higher = more cleavage; in vitro, sequencing; the parent is a self-cleaving ribozyme.
As to CGCAGAGCUCAACAGAGCGUGGCAAGGUGGCUGUGGUUAGACUGCC [G1C C15G A26G C37U], the self-cleavage amounted to 0. The result for CGCAGAGGUCAACAAAGCGUGGCAAAGUCGCUGUGGCUAGAGUGCC [G1C C8G C15A G29C C42G] reads 0.01; that for CGCAGAGCUAACCACAGCGUGGCACAGUUGCUGAGGCUAGCCUGCC [G1C C10A A12C A25C G29U U34A A41C], 0.02.

Consider CGCAGAGCUCAAGACAGCGCGGCAAAGUAGCUGUGGCUAGACUGGC [G1C C13G U20C G29A C45G], for which the self-cleavage was 0.04. CGCAGAGCUCAACACAGCGUGGUAAAGUGCCUGAGGCUAUACUGCC [G1C C23U G30C U34A G40U]: the self-cleavage was 0.02. The result for CGCAGAGGUCAACUCAUCGUGACAACGUGGCUGUGGCUGGACUGCC [G1C C8G A14U G17U G22A A26C A39G] reads 0.01; that for CCCAGAGCUCAAAACAGCGUGGCAAAGUGGCUGUGGGUAGACUGCC [G1C G2C C13A C37G], 0.

Turning to CACAGAGCUCAACACAGUGUGGCAAAGUUGCUGUGGCUAGACUGCC [G1C G2A C18U G29U], the self-cleavage was 0.09.

For CUCAGAGCUCAACACAGUGUGACAAAGUGGCUGUGGCUAGAUUGCC [G1C G2U C18U G22A C42U], the self-cleavage was 0.03. The result for CUCAGAGCUCAAUACAGCGUGGCAAAGUGCCUGUGGCUAGACUGCC [G1C G2U C13U G30C] reads 0.02; that for CGCAGAGCUAAACACAGCGUGGCAAAGUCGCUGUGGCUAGACUGCC [G1C C10A G29C], 0.02; that for CGCAGAGCUAAUCACCGCGUGGCAAAGUGGCUCUGGCUAGACUGCC [G1C C10A A12U A16C G33C], 0.01. Turning to CGCAGAGCUCAAUACAGCGAGGCAAAAUGGCUGUGGCUAGACUGCC [G1C C13U U20A G27A], the self-cleavage was determined as 0.03. On to CCCAGACCUCAACACAGCGUGGCAAAUUGGCUUGGGCUAGACUGCC [G1C G2C G7C G27U G33U U34G], for which the self-cleavage stood at 0.03.

As for CGCAGAGGUCAACACAGCGUGGCAAAGUGACUGUCGCUAUACUGCC [G1C C8G G30A G35C G40U], the self-cleavage came to 0.

Regarding CGCAGAGCUCAACACAGCGUGGUAAAGUGGCUGAGGCUAGACUGCC [G1C C23U U34A], the self-cleavage worked out at 0.07.

On to CGCAGAGAUCAACACAGCGUAGAAAAGUGGCUGUGAUUAGACUGCC [G1C C8A G21A C23A G36A C37U], for which the self-cleavage came to 0.09. The result for CGCACAGCUCAACACAGCGUCGCAAAGUGGCUGUGGCUUGACUGCC [G1C G5C G21C A39U] reads 0.02. With CGCAGAGCUCAACACAGAGUGGCAAAGUGGCUGUGACUAUACUGCC [G1C C18A G36A G40U], the self-cleavage worked out at 0.03. The result for CGCAGAGCUCAACACAGUGUGGCAACGUGGUUGUGGCUAGACUGCC [G1C C18U A26C C31U] reads 0.01; that for CGCAGAGGUCAACACAGCGUGUCAAAGUUGCUGUGGCUAGACUUCC [G1C C8G G22U G29U G44U], 0.01.

As for CCCAGAGGUCAACUCAGCGUGUCAAAGUGCCUGUGGCUAGACUGCC [G1C G2C C8G A14U G22U G30C], the self-cleavage was determined as 0.04.

As for CGUAGAGCGCAACCCAGCGUGGCAAAGUGGCUGUGGAUAGACCGCC [G1C C3U U9G A14C C37A U43C], the self-cleavage was 0.01. The result for CGCAGAGCUAAACACAGUGUGGCAAAGUGGCUGUUGCUAGACUGCC [G1C C10A C18U G35U] reads 0; that for CGCAGAGCUCAAUACAGCGUGGGAAAGUGGCUUUGGCUAGACUGCC [G1C C13U C23G G33U], 0. The result for CGCAGAGAUCAUCACAGCGUGGCAAAGUAGCUGUGGCUAGACUUCC [G1C C8A A12U G29A G44U] reads 0.02; that for CGCAGAGCUUAACACAGCGUGGCAAAUUGGCUGUUGCUAGACUGUC [G1C C10U G27U G35U C45U], 0.01; that for CGCAGAGCUCAACACAGCGUGGUAAAGUGGCUGUGGCGAGACUGCC [G1C C23U U38G], 0.02. The result for CGCAGAGCUUAACACAGCCUGGCAACGUGGCUGUGGCAAGACUGCC [G1C C10U G19C A26C U38A] reads 0.01; that for CGCAGAGCUUAACACAGCGUGGCAAAGUGGCUGUGGCUCGAUUGCC [G1C C10U A39C C42U], 0. For the variant CGCAUAGCUCAACACCGCGUGGCAAAGUGGCUGUGGCUAGACUGCC [G1C G5U A16C], the self-cleavage was 0.04. In the case of CGCAAAGCUCAACACAGCGUGGCGAAGUGGCUUUGGCUAGACCGCC [G1C G5A A24G G33U U43C], the self-cleavage turned out to be 0. The result for CCCAGAGCUCAACAAAGCGUGCCAAAGUGGCUGUGGCUAGACUGCC [G1C G2C C15A G22C] reads 0.03; that for CCCAGAGCUCAACACAGCGUGGCAAAGAGGCCGUGGCUAGACUGCC [G1C G2C U28A U32C], 0.02. Take CGCAGAGCUAAACACAGCGUGGCAAAGUGGCUGUGCCUAGACUGCC [G1C C10A G36C]: the self-cleavage was 0.01. The result for CGCAGAGCUCAACACAGCGUGGGACAGUGUCUGUGGCUAGACUGCC [G1C C23G A25C G30U] reads 0.02; that for CGCAGAGCUCAACAUAGCAUGGCAAAGUGGCUGUGGCUAGACUGCC [G1C C15U G19A], 0.1. The result for CGUAGAACUCAACACGGCGUGGCAAAGUGGCUGUGGCUAGACUGCC [G1C C3U G7A A16G] reads 0.12. The result for CGUAGAGCUCAACACAGCGAGCUACAGUGGCUGUGGCUAGACUGCG [G1C C3U U20A G22C C23U A25C C46G] reads 0.29.

With CACAGAGCUCAACACAGCGUGGCAAAGUAGCGUUGGCAAGACUGCC [G1C G2A G29A U32G G33U U38A], the self-cleavage came to 0.07.

On to CUCAGAGCUCAAUACAGCGUGGCAAAGUGGCUGUGCCUAGACUGCA [G1C G2U C13U G36C C46A], for which the self-cleavage is 0.03.

As to CGCACAGCUCAACACAGCGUGGCAAAGUGGCUGUGGCUAGAAUGCC [G1C G5C C42A], the self-cleavage turned out to be 0. The result for CGCAGAGCUCAACACAGCGUGGGAAAGUGGCUCUGGAUAGACUGCC [G1C C23G G33C C37A] reads 0. The result for CGCAGAGCUCAAAAAAGCGUGGCAAAGUGGCUGUGGAUAGACUGCC [G1C C13A C15A C37A] reads 0.01; that for CGUAGAGCUCAACUCACCGUGGCAAAAUGGCUGUGGCUAGACUCCC [G1C C3U A14U G17C G27A G44C], 0.03. The result for CACAGAGCUCAAAACAGCGUGGCAAAGUGGCUCUGGCUAGACUCCC [G1C G2A C13A G33C G44C] reads 0.02; that for CGCAGAGCUCAACACAGUGUGGCAAAGUGGCUGUGGCUAGACUGGC [G1C C18U C45G], 0.02. On to CGCAGAGAUCAACACCGCGUGGCAAAGUGGCUGUGGCUAGACUGCC [G1C C8A A16C], for which the self-cleavage amounted to 0.04. CGCAGAGCUCAAGACAGCGUGGCAAGGUGACUGUGGCUAGUCUGCC [G1C C13G A26G G30A A41U]: the self-cleavage came out at 0.03.

For CGCAGAGCUCAACAAAGCUUGGCAAAGUGGCUGUGGCUAGACUGCC [G1C C15A G19U], the self-cleavage was determined as 0.01.

On to CACAGAGCUCAACACAGCGUGGCAAAGUGGCAGUUGCUAGACUCCC [G1C G2A U32A G35U G44C], for which the self-cleavage is 0.24. For the variant CGCAGAGCUGAACACAGCGUGGCAAAGUGGCUUUGGCUAGACUGCC [G1C C10G G33U], the self-cleavage worked out at 0.03. The result for CGCAGAGCUAAACACAGCGUGACAAAGUGUCUGUGACUAGAAUGCC [G1C C10A G22A G30U G36A C42A] reads 0; that for CCCAGAGCUCAACACAGCGUGGCAAAGUGGCUGUGGGUAGACUGCC [G1C G2C C37G], 0.02; that for CGCAAAGCUCAACACAGCGUGGCAAAGUGGGUGUGGCUAGACUGGC [G1C G5A C31G C45G], 0.03. The result for CGCAGAGCUCAAUACAGCGUUGCAAAGUGGCUGUGGCUAGUCUGCC [G1C C13U G21U A41U] reads 0.01.
